From US20220340678A1 come the findings set out here.

This assay deals with IL-10 receptor on human immune cells (human). Description: cell-based or functional assay.

B1: scIL-10:CL:CH1:Fc (scIL10 3aa linker) (Fc fusion, from a related filing)
chain: SPGQGTQSENSCTHFPGNLPNMLRDLRDAFSRVKTFFQMKDQLDNLLLKESLLEDFKGYLGCQALSEMIQFYLEEVMPQAENQDPDIKAHVNSLGENLKTLRLRLRRCHRFLPCENKSKAVEQVKNAFNKLQEKGIYKAMSEFDIFINYIEAYMTMKIRNGGGSPGQGTQSENSCTHFPGNLPNMLRDLRDAFSRVKTFFQMKDQLDNLLLKESLLEDFKGYLGCQALSEMIQFYLEEVMPQAENQDPDIKAHVNSLGENLKTLRLRLRRCHRFLPCENKSKAVEQVKNAFNKLQEKGIYKAMSEFDIFINYIEAYMTMKIRNGGGGSGGGGSRTVAAPSVFIFPPSDEQLKSGTASVVCLLNNFYPREAKVQWKVDNALQSGNSQESVTEQDSKDSTYSLSSTLTLSKADYEKHKVYACEVTHQGLSSPVTKSFNRGECGGGGSGGGGSGGGGSGGGGSASTKGPSVFPLAPSSKSTSGGTAALGCLVKDYFPEPVTVSWNSGALTSGVHTFPAVLQSSGLYSLSSVVTVPSSSLGTQTYICNVNHKPSNTKVDKRV[omitted - human IgG1 Fc]
On to B1, for which the STAT3 phosphorylation potency, B cells came out at 0.057 pM; the STAT3 phosphorylation potency, CD4 Central Memory T cells stood at 80.6 pM; the STAT3 phosphorylation potency, Monocytes came to 0.06 pM.
